Consider one substance from patent US4022884A, “Gardimycin and process for producing same” (Gruppo Lepetit S.p.A., priority 1974, dated 1977).

This series is described as follows: Partition coefficient, countercurrent extraction solvent system. The following applies: butanol:sodium-potassiumphosphate buffer M/15 pH 7.2:hexane 1:1:0.1.

For the substance gardimycin, the partition coefficient is 0.8.
